# In PubChem BioAssay AID1508642 (National Center for Advancing Translational Sciences (NCATS), 2021):
# About 200 (0.47%) of roughly 43,000 compounds were called active. Inconclusive results (about 12%) are left out. The call rests on the fitted dose curve; in most records, active means well fitted cell-killing curve with a large enough effect; inconclusive means small, poorly fitted or top-dose-only effect, or effect the other way; inactive means flat fitted curve, though single readings scatter. The list shows a part of the results.
# Experiment: Cell viability qHTS assay in S16 Pmp22-F2sN cells; further: nearly all actives have a fitted effect of over 65% in size
# Settings: S16 Pmp22-F2sN Schwann cells viability, CellTiter-Glo, 24 h; series mostly up to 57.5 µM; activity change, negative = cytotoxicity: at the top concentration
# How it was run: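 Viability was measured by CellTiter-Glo luminescence (15 min, room temperature). This followed 24 h at 37 °C of compound exposure (23 nL pin transfer) in S16 Pmp22-F2sN Schwann cells, 500-1,000 per well.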
# On the % scale 0 is the no-effect control and ±100 the full control effect.
row,Structure (SMILES),"activity change, negative = cytotoxicity"
1,Cc1c(Cl)cccc1-n1ncc(C(=O)N2CCN(c3ncccn3)CC2)c1C1CCN(C(=O)OC(C)(C)C)CC1,inactive: -18.6%
2,COc1cccc(NC(=O)CCC(=O)N2Cc3ccccc3Oc3ncccc32)c1,inactive: 8.38%
3,CCCOc1ccc(CNC(=O)CCCn2ncn3c(cc4sc(CC)cc43)c2=O)cc1,inactive: -11.5%
4,Cc1ccc(-n2cc(-c3ccccc3)c3c(N4CCCCC4)ncnc32)cc1,inactive: -1.62%
5,CC(C)OC(=O)c1cccc(NC(=O)Cn2nnc3sc4c(c3c2=O)CCCC4)c1,inactive: 1.38%
6,Cc1cccc(Nc2nnc(-c3ccc(C)c(S(=O)(=O)N4CCCCC4)c3)c3ccccc23)c1,inactive: -3.36%
7,Cc1ccc(CNC(=O)CSc2nc3ccsc3c(=O)n2Cc2ccccc2F)cc1,inactive: -8.34%
8,COc1ccc(C)cc1NC(=O)C(=O)NCC(c1cccnc1)N1CCc2ccccc21 (stereo unspecified),inactive: -14%
9,COc1ccc(NC(=O)CSc2nccn2Cc2ccc3c(c2)OCO3)cc1,inactive: 0.404%
10,O=C1CC(c2ccccc2)Sc2ccccc2N1Cc1ccc(F)cc1 (stereo unspecified),inactive: -0.862%
11,Cc1ccc(-n2c3c(cc(C(=O)Nc4ccccc4C(N)=O)c2=O)C(=O)CC(C)(C)C3)cc1,inactive: -0.0224%
12,CN(C)CCNC(=O)CN1C(=O)COc2ccc(S(=O)(=O)N3CCCC3)cc21,inactive: 3.13%
13,CCOc1ccccc1NC(=O)c1c(NC(=O)COc2ccccc2)sc2c1CCCC2,inactive: 7.55%
14,COc1ccc(C2=Nc3ccccc3NC(c3cccs3)=N2)cc1,inactive: -7.33%
15,COc1ccccc1NC(=O)Cn1c(SCC(=O)Nc2ccc(F)cc2)nc2ccccc21,inactive: -0.3%
16,Cc1nc2ccn(Cc3ccccc3)c(=O)c2cc1C(=O)N1CCN(c2ccc(F)cc2)CC1,inactive: 11.5%
17,COc1cccc(CCNC(=O)c2c(O)nc3c(C)cccn3c2=O)c1,inactive: 11.8%
18,CC(Sc1nnc2ccc3ccccc3n12)C(=O)Nc1ccc(Cl)cc1 (stereo unspecified),inactive: 19.2%
19,COCCc1nn2c(=O)cc(COC(=O)C(c3ccccc3)c3ccccc3)nc2s1,inactive: -9.34%
20,CCOC(=O)c1cnc2cc(-c3ccc(OCC)cc3)nn2c1-c1ccccc1,inactive: -1.63%
21,Cc1cc(NC(=O)n2ncc3c(C)cccc32)ccc1Br,inactive: 13.2%
22,CCCN1CCN(CCCNC(=O)c2ccc3nc(Cc4ccccc4)oc3c2)CC1,inactive: 1.04%
23,CCCCN1CC(c2nc3ccccc3n2CCCCOc2cccc(C)c2C)CC1=O (stereo unspecified),inactive: -19%
24,CCOc1ccc(CN(CCc2ccc3c(c2)OCO3)Cc2cc(OC)c(OC)cc2OC)cc1,inactive: -23.1%

row,Structure (SMILES),"activity change, negative = cytotoxicity"
1,COc1ccc2c(CNCCc3cccs3)c(C(=O)O)n(Cc3ccc(F)cc3Cl)c2c1,inactive: -19.3%
2,CCC(Sc1nnc2c3ccccc3n(CC)c2n1)C(=O)Nc1nnc(C(C)C)s1 (stereo unspecified),inactive: 2.72%
3,COc1ccc(-c2cc3nc(C4CCN(C(=O)OC(C)(C)C)CC4)c(C(=O)Nc4cc(C)cc(C)c4)cn3n2)cc1,inactive: -2.27%
4,Cn1c(=O)cc(SCC(=O)N2CCN(c3ccccc3F)CC2)c2ccccc21,inactive: -16.4%
5,Cc1cc(C)cc(NC(=O)CCCc2nc(-c3ccco3)no2)c1,inactive: -4.83%
6,Cc1cc(-n2c(C)nc3ccccc3c2=O)ccc1NC(=O)c1ccccc1[N+](=O)[O-],inactive: 4.15%
7,COc1ccc(C)cc1NC(=O)c1cc(S(=O)(=O)N2CCCCC2)c[nH]1,inactive: -0.109%
8,COc1ccc(OC)c(NC(=O)[C@H](CSCc2ccccc2)N2Cc3ccccc3C2=O)c1,inactive: -6.95%
9,CCOC(=O)c1cc(OC(=O)c2ccccc2Cl)n(-c2ccccc2)n1,inactive: 1.8%
10,Cc1nn2c(=O)cc(COC(=O)c3ccccc3NC(=O)COc3ccccc3C)nc2s1,inactive: 3.9%
11,Cc1ccc(SCc2nc(-c3ccc(C(=O)NCCc4ccc(Cl)cc4)cc3)oc2C)cc1,inactive: 4.07%
12,Cc1ccccc1NC(=O)Cn1c(=O)n(Cc2ccccc2)c(=O)c2c(C)c(C)sc21,inactive: 25.5%
13,Cc1ccc(CNC(=O)Cn2c(=O)n(-c3ccc(C)cc3)c(=O)c3c2c2cc(C)ccc2n3C)cc1,inactive: 12.5%
14,COC(=O)c1cc2occc2n1CC(=O)Nc1ccc(N(C)C)cc1,inactive: 7.48%
15,COC(=O)c1c(N)n(-c2ccc(OC)c(OC)c2)c2nc3ccccc3nc12,inactive: 1.04%
16,N#Cc1nc(-c2ccc(COc3ccccc3)o2)oc1N1CCCCC1,inactive: -0.567%
17,Cc1ccc(CNC(=O)C(=O)NCC(c2ccco2)S(=O)(=O)c2ccccc2)cc1 (stereo unspecified),inactive: 11.8%
18,CCSc1nc(-c2ccccc2F)nc2c1Cc1c(CO)cnc(C)c1O2,inactive: -2.28%
19,COc1ccc(CCNC(=O)C(C)n2c(=O)cc(-c3ccccc3)c3c(C)nn(C)c32)cc1OC (stereo unspecified),inactive: 2.67%
20,CCC(=O)N1CCc2cc(CNC(=O)c3ccc(F)cc3)ccc21,inactive: 23.8%
21,COc1cccc(N2CCN(C(=O)c3nn(C)c4c3CSc3ccc(C)cc3-4)CC2)c1,inactive: 12%
22,Cc1ccc(-c2nc3sccn3c2Nc2ccc(C)c(C)c2)cc1,inactive: -22.5%
23,CC1CCN(c2nc3ccc(C(=O)N4CCN(c5ccccc5)CC4)cc3s2)CC1,inactive: -1.67%
24,CCOc1ccc(N(CC)C(=O)c2cc3c(s2)-c2ccccc2OC3)cc1,inactive: -15.8%

row,Structure (SMILES),"activity change, negative = cytotoxicity"
1,CCN(C(=O)c1cn(CC)c(=O)c2cc(OC)c(OC)cc12)c1ccccc1F,inactive: 5.74%
2,Cc1cccc(NC(=O)C(=O)NCCc2csc(-c3ccc(F)cc3)n2)c1C,inactive: 10.4%
3,Cc1cc(C)c2c(=O)cc(CSc3n[nH]c(C)n3)[nH]c2c1,inactive: 14.5%
4,COc1ccc(CCC(=O)NC2CC(=O)N(c3ccc(OC)cc3)C2)cc1 (stereo unspecified),inactive: 3.6%
5,CCC(C(=O)Nc1cc(F)ccc1F)n1nc(C)c2c(C)n(-c3ccc(C)cc3)nc2c1=O (stereo unspecified),inactive: -17%
6,COc1ccc(NC(=O)CN2C(=O)c3cccnc3Sc3ccccc32)cc1OC,inactive: -17.1%
7,CCOC(=O)c1ccc(NC(=O)C2=C(C)Nc3nc(CCCO)nn3C2c2ccc(OC)cc2)cc1 (stereo unspecified),inactive: -4.03%
8,Cc1cccc(N2CCN(C(=O)c3ccc(Nc4nc5ccccc5n5nnnc45)cc3)CC2)c1C,inactive: -27%
9,CC1=C(C(=O)Nc2cc(Cl)ccc2C)C(c2cccs2)n2ncnc2N1 (stereo unspecified),inactive: 11.3%
10,O=C(CSCc1ccc(F)cc1)N1CCc2c([nH]c3ccccc23)C1c1ccc(Cl)cc1 (stereo unspecified),inactive: -8.31%
11,COc1cc(C(=O)Nc2ccccc2-c2nc(-c3ccc(C)cc3)no2)cc(OC)c1OC,inactive: 16.2%
12,CC(=O)c1c(C)oc2c1cc(NS(=O)(=O)c1ccc(Cl)c(C)c1)c1ccccc12,inactive: -16.1%
13,COc1ccc(OC)c(NC(=O)Cn2c(=O)cc(-c3ccccc3)c3c(C)nn(C)c32)c1,inactive: 1.84%
14,COc1cc(NC(=O)CCCOc2cc(=O)n(C)c3ccccc23)cc(OC)c1OC,inactive: -14.6%
15,CCOC(=O)CNC(=O)N1CCN(c2nnc(C)c3c(C)n(-c4ccc(Cl)cc4)nc23)CC1,inactive: 0.471%
16,Cc1cccc(N2CCN(C(=O)CS(=O)(=O)Cc3nc(-c4ccccc4C)oc3C)CC2C)c1 (stereo unspecified),inactive: -1.2%
17,CCc1ccc(S(=O)(=O)c2nnn3c2nc(Nc2ccc(NC(C)=O)cc2)c2sccc23)cc1,inactive: 11.3%
18,Cc1nc(-c2ccc(C)c(N3CCN(C(=O)Nc4cccc(Cl)c4C)CC3)c2)no1,inactive: -0.805%
19,CCOC(=O)C1CCCN(Cc2cn3c(-c4cccc(Br)c4)nnc3s2)C1 (stereo unspecified),inactive: 1.66%
20,Cc1ccc(-n2c(Cc3ccccc3)nnc2SCc2nc(-c3cccs3)no2)cc1C,inactive: -24.1%
21,O=C(Nc1ccc(Cl)cc1)C(NS(=O)(=O)c1cccs1)c1ccccc1 (stereo unspecified),inactive: -2.26%
22,Cc1cccc(OCC(=O)Nc2nnc(S(=O)(=O)N3CCc4ccccc43)s2)c1,inactive: 1.81%
23,Cc1cc(NC(=O)CCNS(=O)(=O)c2cccc3nsnc23)ccc1Br,inactive: -2.45%
24,Cc1ccc(NC(=O)c2ccccc2Br)c(C(=O)c2ccccc2)c1,inactive: -12.9%

row,Structure (SMILES),"activity change, negative = cytotoxicity"
1,COc1ccc(CNC(=O)c2ccc3nc(-c4ccc(F)cc4)c(-c4ccc(F)cc4)nc3c2)cc1,inactive: 9.7%
2,Cc1nnc(NC(=O)c2ccccc2)s1,inactive: -12.3%
3,CCC1(C)Cc2c(sc3nc(SC)n(-c4ccc(C)cc4)c(=O)c23)CO1 (stereo unspecified),inactive: -0.25%
4,O=C(Nc1ccc(-c2nc3cc(Cl)ccc3o2)cc1)c1cc2ccccc2o1,inactive: 7%
5,COc1ccc(Cn2c(SCc3ccc(C(=O)NC(C)c4ccccc4)cc3)nc3cccnc32)cc1 (stereo unspecified),inactive: 3.73%
6,O=C(NCc1ccccc1Cl)c1ccc2oc(=O)n(Cc3ccccc3)c2c1,inactive: -1.85%
7,Cc1cc(C)n(-c2nc3ccccc3nc2N2CCN(c3cccc(C(F)(F)F)c3)CC2)n1,inactive: -2.84%
8,CCOc1cccc2sc(N(Cc3cccnc3)C(=O)c3ccc(C#N)cc3)nc12,inactive: -7.36%
9,COc1ccc(NC(=O)CC2NCCNC2=O)c(OC)c1 (stereo unspecified),inactive: 3.02%
10,Cc1c(CC(=O)NCc2ccc(F)cc2)c(=O)oc2cc(O)c(Cl)cc12,inactive: 0.155%
11,CCOC(=O)c1c(NC(=O)C2c3ccccc3Oc3ccccc32)sc(C)c1C,inactive: 0.391%
12,Cc1ccc(-n2c(SCc3ccccc3)nc3c([nH]c4ccccc43)c2=O)cc1,inactive: 1.4%
13,COc1ccccc1C(=O)Oc1ccc(C(c2c(C)[nH][nH]c2=O)c2c(C)[nH][nH]c2=O)cc1,inactive: 1.05%
14,COC(=O)c1cc(-c2ccc(C)cc2)c2c(=O)n(C)c(=O)n(C)c2n1,inactive: -1.61%
15,Cc1nc(-c2ccc(F)cc2)sc1CCNC(=O)C(=O)Nc1ccc2c(c1)OCCO2,inactive: 8.58%
16,O=C(CCCn1c(=O)c2cccn2c2ccccc21)NCCc1ccc(Cl)cc1,inactive: -21.2%
17,CSc1nn(Cc2ccc(C)cc2)c(N)c1S(=O)(=O)c1ccccc1,inactive: -7.64%
18,COc1cccc(CNC(=O)c2cc(S(=O)(=O)N3CCCCC3)c[nH]2)c1,inactive: 5.58%
19,COc1ccc(CC(=O)Nc2ccc(-c3nc4ccccc4s3)c(C)c2)cc1OC,inactive: -16.2%
20,COc1ccc2oc(=O)c(C(=O)N3CCN(c4ccc(C)cc4)CC3)cc2c1,inactive: 8.05%
21,Cc1csc2nc(COC(=O)c3ccccc3NC(=O)c3ccc(C(C)(C)C)cc3)cc(=O)n12,inactive: 3.04%
22,CC1=C(C(=O)Nc2ccccc2)C(c2ccccc2)n2nc(-c3ccco3)nc2N1 (stereo unspecified),inactive: 3.09%
23,COc1ccc(NC(=O)Cn2c(SCc3cccc(Cl)c3)nc3ccncc32)c(OC)c1OC,inactive: 4.27%
24,COc1cc(Cl)c(C)cc1NC(=O)CCc1nc2cccnc2n1-c1ccccc1,inactive: 8.13%
